Target: IsdB NEAT1-NEAT2 (aa residues 48-480) (S. aureus SH1000) (UniProt Q2FZF0)
Experiment: ELISA; recombinant CWA proteins coated at 1 μg/well (0.1 M sodium carbonate, pH 9.5), 1 μg/well of vWF in PBS for 1 h at 22 °C, detected with rabbit anti-vWF IgG; also with ristocetin-treated vWF on immobilised IsdB

UniProt Q2FZF0, sequence (Q2FZF0 48-480): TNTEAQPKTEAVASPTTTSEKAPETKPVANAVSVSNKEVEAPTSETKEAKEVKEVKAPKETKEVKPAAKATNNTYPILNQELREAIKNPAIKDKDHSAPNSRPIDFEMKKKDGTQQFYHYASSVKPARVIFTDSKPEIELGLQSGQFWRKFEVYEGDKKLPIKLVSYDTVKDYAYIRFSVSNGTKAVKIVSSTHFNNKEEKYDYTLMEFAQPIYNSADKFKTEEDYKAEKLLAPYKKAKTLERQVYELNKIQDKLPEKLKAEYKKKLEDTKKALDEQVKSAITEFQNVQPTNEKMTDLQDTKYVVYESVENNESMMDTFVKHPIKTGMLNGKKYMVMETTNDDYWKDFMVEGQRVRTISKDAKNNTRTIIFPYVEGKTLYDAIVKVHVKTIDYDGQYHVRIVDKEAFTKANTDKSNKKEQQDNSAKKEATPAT

In the case of “human von Willebrand factor (a stretch of the chain, chain not printed) (natural protein)”, the increase of binding of ristocetin-treated vWF over untreated vWF is reported as 40%.
